Measurements from a collection of fitness landscapes (doi:10.1126/science.1257360).
The other results are listed elsewhere or left out.

B1: PhoQ; a variant is named by its letters at X, in order, P23837 (parent)
chain: MKKLLRLFFPLSLRVRFLLATAAVVLVLSLAYGMVALIGYSVSFDKTTFRLLRGESNLFYTLAKWENNKLHVELPENIDKQSPTMTLIYDENGQLLWAQRDVPWLMKMIQPDWLKSNGFHEIEADVNDTSLLLSGDHSIQQQLQEVREDDDDAEMTHSVAVNVYPATSRMPKLTIVVVDTIPVELKSSYMVWSWFIYVLSANLLLVIPLLWVAAWWSLRPIEALAKEVRELEEHNRELLNPATTRELTSLVRNLNRLLKSERERYDKYRTTLTDLTHSLKTPLXXLQXXLRSLRSEKMSVSDAEPVMLEQISRISQQIGYYLHRASMRGGTLLSRELHPVAPLLDNLTSALNKVYQRKGVNISLDISPEISFVGEQNDFVEVMGNVLDNACKYCLEFVEISARQTDEHLYIVVEDDGPGIPLSKREVIFDRGQRVDTLRPGQGVGLAVAREITEQYEGKIVAGESMLGGARMEVIFGRQHSAPKDE

Variants of: B1
Assay: enrichment ratio after two sorts for PhoP signalling (ratio (wild type AVST 3.29)); higher = more functional
Settings: with PhoP (E. coli)

| Variant | enrichment ratio |
| --- | --- |
| IFRH | ≤ 0.25 |
| KYIN | ≤ 0.25 |
| VKFH | ≤ 0.25 |
| MVMN | ≤ 0.25 |
| ESWA | ≤ 0.25 |
| AKFG | ≤ 0.25 |
| PRDI | ≤ 0.25 |
| ITGL | ≤ 0.25 |
| GRSG | ≤ 0.25 |
| FHWD | ≤ 0.25 |
| EHQS | ≤ 0.25 |
| GCTY | 5.53 |
| VCMH | ≤ 0.25 |
| NKEY | ≤ 0.25 |
| NQGP | ≤ 0.25 |
| GVIA | ≤ 0.25 |
| DMAN | ≤ 0.25 |
| MFPP | ≤ 0.25 |
| VAKQ | ≤ 0.25 |
| RAQM | ≤ 0.25 |
| LDNE | ≤ 0.25 |
| THDC | ≤ 0.25 |
| QITY | ≤ 0.25 |
| YTFS | ≤ 0.25 |
| FYRQ | ≤ 0.25 |
| VVYW | ≤ 0.25 |

| Variant | enrichment ratio |
| --- | --- |
| FSKD | ≤ 0.25 |
| MEVF | ≤ 0.25 |
| PMKT | ≤ 0.25 |
| SWCF | ≤ 0.25 |
| GKVI | ≤ 0.25 |
| GWTT | ≤ 0.25 |
| VRII | ≤ 0.25 |
| DCCF | ≤ 0.25 |
| NDKH | ≤ 0.25 |
| FFMK | ≤ 0.25 |
| KDQI | ≤ 0.25 |
| GMII | ≤ 0.25 |
| RHMF | ≤ 0.25 |
| KCNA | ≤ 0.25 |
| LYSS | ≤ 0.25 |
| STEC | ≤ 0.25 |
| QPDP | ≤ 0.25 |
| KPGW | ≤ 0.25 |
| MKVE | ≤ 0.25 |
| FEAM | 3.27 |
| QYLT | ≤ 0.25 |
| GDNN | ≤ 0.25 |
| QHWR | ≤ 0.25 |
| GMGW | ≤ 0.25 |
| PVDH | ≤ 0.25 |
| WPRY | ≤ 0.25 |

| Variant | enrichment ratio |
| --- | --- |
| HDSQ | ≤ 0.25 |
| GCTV | ≤ 0.25 |
| HRCV | ≤ 0.25 |
| DVYM | ≤ 0.25 |
| MDKP | ≤ 0.25 |
| PQII | ≤ 0.25 |
| AQMT | 23.8 |
| NCWI | ≤ 0.25 |
| MYGS | ≤ 0.25 |
| QSDA | 7.1 |
| KANY | ≤ 0.25 |
| GPHN | ≤ 0.25 |
| WFDQ | ≤ 0.25 |
| THKI | ≤ 0.25 |
| LDDH | ≤ 0.25 |
| VMIP | ≤ 0.25 |
| YRKG | ≤ 0.25 |
| LTED | ≤ 0.25 |
| QNLI | ≤ 0.25 |
| DMEG | ≤ 0.25 |
| LSSK | ≤ 0.25 |
| RKNY | ≤ 0.25 |
| RDFT | ≤ 0.25 |
| IIPY | ≤ 0.25 |
| INHE | ≤ 0.25 |
| MSRL | ≤ 0.25 |

| Variant | enrichment ratio |
| --- | --- |
| IWHS | ≤ 0.25 |
| YSQI | 0.258 |
| HEMH | ≤ 0.25 |
| VRAD | ≤ 0.25 |
| QDNW | ≤ 0.25 |
| AVTG | 11.3 |
| GPLL | ≤ 0.25 |
| AMPM | ≤ 0.25 |
| SHQA | ≤ 0.25 |
| PCGE | ≤ 0.25 |
| DCLE | ≤ 0.25 |
| VSIV | ≤ 0.25 |
| WQWK | ≤ 0.25 |
| WPFY | ≤ 0.25 |
| FIAQ | ≤ 0.25 |
| SKSV | 5.98 |
| PRVC | ≤ 0.25 |
| VKCV | ≤ 0.25 |
| KEQH | ≤ 0.25 |
| WSHL | ≤ 0.25 |
| GDFW | ≤ 0.25 |
| YWGR | ≤ 0.25 |
| NNQL | 5.12 |
| DSKA | ≤ 0.25 |
| MIDS | ≤ 0.25 |
| VDLN | ≤ 0.25 |

| Variant | enrichment ratio |
| --- | --- |
| EPMV | ≤ 0.25 |
| WHYQ | ≤ 0.25 |
| WGLQ | ≤ 0.25 |
| YIHN | ≤ 0.25 |
| DLYH | ≤ 0.25 |
| VTTA | ≤ 0.25 |
| NYTQ | ≤ 0.25 |
| SVCT | 5.1 |
| HGVY | ≤ 0.25 |
| VMKS | ≤ 0.25 |
| FTDG | ≤ 0.25 |
| VQPG | ≤ 0.25 |
| SAYY | ≤ 0.25 |
| DMWH | ≤ 0.25 |
| FYCC | ≤ 0.25 |
| LIVI | ≤ 0.25 |
| YPES | ≤ 0.25 |
| HYKQ | ≤ 0.25 |
| YLFY | ≤ 0.25 |
| KNEC | ≤ 0.25 |
| PDVG | ≤ 0.25 |
| EFRQ | ≤ 0.25 |
| VVNS | ≤ 0.25 |
| SPFT | ≤ 0.25 |
| WQLG | ≤ 0.25 |
| FGLG | 5.82 |

| Variant | enrichment ratio |
| --- | --- |
| IRIQ | ≤ 0.25 |
| RNQL | ≤ 0.25 |
| TRMD | ≤ 0.25 |
| YGYQ | ≤ 0.25 |
| FENV | ≤ 0.25 |
| PNMM | ≤ 0.25 |
| GNNR | ≤ 0.25 |
| TEHR | ≤ 0.25 |
| PTNW | ≤ 0.25 |
| GWFH | ≤ 0.25 |
| AWAT | ≤ 0.25 |
| NFQH | ≤ 0.25 |
| TDIC | 14.4 |
| TLMA | ≤ 0.25 |
| QLLA | ≤ 0.25 |
| SDQM | ≤ 0.25 |
| NLMV | ≤ 0.25 |
| EIRL | ≤ 0.25 |
| YEKH | ≤ 0.25 |
| AIWW | ≤ 0.25 |
| YDNK | ≤ 0.25 |
| EGTQ | ≤ 0.25 |
| VWWY | ≤ 0.25 |
